Source: the RNAGym collection of RNA variant scans (doi:10.7554/elife.90254)
Read counts are not given, so values of variants with three or more changes are uncertain.

B1: LINE1-mini (parent)
chain: GGCAGAGCUCAACACAGCGUGGCAAAGUGGCUGUGGCUAGACUGCC

Variants of: B1
Experiment: self-cleavage, relative activity (ratio to wild type); higher = more cleavage; in vitro, sequencing; the parent is a self-cleaving ribozyme

Question: Which self-cleavage does the source give for GGCAAAGCGCAACACAGCGUGGCAAAGUGGCUAUGGCUAGACUGGC [G5A U9G G33A C45G] here?
Answer: 0.03

Question: With GGCAAAGCGCAACACAGCGUGGCAAAGUGGCUGUGACUAGACUGCC [G5A U9G G36A] as the variant, how does the self-cleavage read?
Answer: 0.47

Question: For GGCAAAGCUCAACACAGCGGGGCAAAGUGGCUGUGGCUGGACUGCC [G5A U20G A39G], which self-cleavage is on record?
Answer: 0.14

Question: For GGCAAAGCUCAACACAGCGUGGCAAAGCUGCUGUGGCUAGACUGCC [G5A U28C G29U], which self-cleavage is on record?
Answer: 0.12

Question: For GGCAAAGCUCAACACAGCGUGGCAAAGCGGCUGCGGCUAGACUGCC [G5A U28C U34C], which self-cleavage is on record?
Answer: 0.05

Question: For GGCAAAGCUCAACACAGCGUGGCAAAGUGGCAGUGGCUAGACUGCG [G5A U32A C46G], which self-cleavage is on record?
Answer: 0.02

Question: With GGCAAAGCUCAACACAGCGUGGCAAAGUGGCGAUGGCUAGACUGCC [G5A U32G G33A] as the variant, how does the self-cleavage read?
Answer: 0.14

Question: With GGCAAAGCUCAACACAGCGUGGCAAAGUGGCUGCGGCUAGACUGUC [G5A U34C C45U] as the variant, how does the self-cleavage read?
Answer: 0.05

Question: With GGCAAAGCUCAACACAGCGUGGCAAAGUGGCUGGGGCUAGACUGCA [G5A U34G C46A] as the variant, how does the self-cleavage read?
Answer: 0.04

Question: With GGCAAAGCUCAACACAGCGUGGCAAAGUGGCUGUGGCUAGACAGGC [G5A U43A C45G] as the variant, how does the self-cleavage read?
Answer: 0.04

Question: Which self-cleavage does the source give for GGCACCGCUCAACACAGCGUGGCAAAGUGGCUGUGGCUUGACUGCC [G5C A6C A39U] here?
Answer: 0.03

Question: Which self-cleavage does the source give for GGCACCGCUUAACACAGCGUGGCAAAGUGGCUGUGGCUAGACUGCC [G5C A6C C10U] here?
Answer: 0.05

Question: Which self-cleavage does the source give for GGCACCGCUCAACACAGCGUCGCAAAGUGGCUGUGGCUAGACUGCC [G5C A6C G21C] here?
Answer: 0.1

Question: Which self-cleavage does the source give for GGCACCGCUCAACACAGCGUGGCAAAGUAGCUGUGCAUAGACUGCC [G5C A6C G29A G36C C37A] here?
Answer: 0.11

Question: For GGCACCGCACAACACAGCGUGGCAAAGUGGCUUUGGCAAGACUGCC [G5C A6C U9A G33U U38A], which self-cleavage is on record?
Answer: 0.06

Question: For GGCACCGCUCAACACAGCGUGGCAAAGUGGCUGUGGCAAGACUCCC [G5C A6C U38A G44C], which self-cleavage is on record?
Answer: 0.04

Question: For GGCACGGUUCAACACAGCGUGGCAAAGUGGCGGUGGCUAGACUGCC [G5C A6G C8U U32G], which self-cleavage is on record?
Answer: 0.03

Question: Which self-cleavage does the source give for GGCACGGCUCAACACAGCGUGGAAAAGUGGCUGUGGCUAGACAGCC [G5C A6G C23A U43A] here?
Answer: 0.02

Question: With GGCACGGCUCAACACAGCGUGGCAAAGUGGAUGGGGCUAGACUGUC [G5C A6G C31A U34G C45U] as the variant, how does the self-cleavage read?
Answer: 0.03

Question: Which self-cleavage does the source give for GGCACGGCUCAACACAGCGUGGCAAAGUGGCUGUGGCUAGACUGCG [G5C A6G C46G] here?
Answer: 0.06

Question: For GGCACGGCUCAACACAGCGUGGCAAAGUGGCUGUUGCUCGGCUGCC [G5C A6G G35U A39C A41G], which self-cleavage is on record?
Answer: 0.01

Question: With GGCACUGCUCAAGACAGCGUGGCAAAGUGGCUGUCGCUAGACUACG [G5C A6U C13G G35C G44A C46G] as the variant, how does the self-cleavage read?
Answer: 0.02

Question: Which self-cleavage does the source give for GGCACUGCUCAACACAGCGUGGCAAAGUGGCUGUGGCUAGACUGCU [G5C A6U C46U] here?
Answer: 0.05

Question: With GGCACUUCUCAACUCAGCGUUGCAAAGUGGCUGUGGCUAUACUGCC [G5C A6U G7U A14U G21U G40U] as the variant, how does the self-cleavage read?
Answer: 0.02

Question: For GGCACUGCUCAACACAGCGUUGCACAGUGGCUGUGGCUAGACUGCC [G5C A6U G21U A25C], which self-cleavage is on record?
Answer: 0.03

Question: With GGCACAGCUCCACGCAGCGUGGCAAAGUGGCUGUGGCUAGACUGCC [G5C A11C A14G] as the variant, how does the self-cleavage read?
Answer: 0.04

Question: Which self-cleavage does the source give for GGCACAGCUCCACACAGCGUGGCGAAGUGUCUGUGGCUACACUGAU [G5C A11C A24G G30U G40C C45A C46U] here?
Answer: 0.01

Question: Which self-cleavage does the source give for GGCACAGCUCCAUACAGCGUGGCAAAGUGGCUGUGGCUAGACUGCC [G5C A11C C13U] here?
Answer: 0.03

Question: Which self-cleavage does the source give for GGCACAGCUCGACACAGCGUGGCUAAGUGGCUGUGGCUAGACUGCC [G5C A11G A24U] here?
Answer: 0.02

Question: With GGCACAGCUCGACACAGCGUGGCAAAGUGGCUGUGGCUAGACCGUC [G5C A11G U43C C45U] as the variant, how does the self-cleavage read?
Answer: 0.02

Question: For GGCACAGCUCUACACAGCGUGGCACAGUGGCUGUGGCUAGUCUGCC [G5C A11U A25C A41U], which self-cleavage is on record?
Answer: 0.03

Question: Which self-cleavage does the source give for GGCACAGCUCUACACACCGUGGCAAAGUGGCUGUGGCUAGACUGCC [G5C A11U G17C] here?
Answer: 0.01

Question: Which self-cleavage does the source give for GGCACAGCUCUACACAGCGUGGCAAAGUAGCUGUGGCUAUACAGCC [G5C A11U G29A G40U U43A] here?
Answer: 0.02

Question: With GGCACAGCUCUACACAGCGUGGCAAAGUUGCUGUGGCUAGACUGCG [G5C A11U G29U C46G] as the variant, how does the self-cleavage read?
Answer: 0.04

Question: For GGCACAGCUCACCCUAGCGUUGCAAAGUGGCUGUGUCUAGACUGCC [G5C A12C A14C C15U G21U G36U], which self-cleavage is on record?
Answer: 0.02

Question: With GGCACAGCUCACCACAGCGUGGCAAAGUGGCUGUGGCUAGACUGCG [G5C A12C C46G] as the variant, how does the self-cleavage read?
Answer: 0.03

Question: Which self-cleavage does the source give for GGCACAGCUCAGCACAGCGUGGCAAAGUGGCUGUGGCUGGAGUGCC [G5C A12G A39G C42G] here?
Answer: 0.01

Question: For GGCACAGCUCAGCAAAGCGUGGCAAAGUGUCUGUGGCUAGACUGCC [G5C A12G C15A G30U], which self-cleavage is on record?
Answer: 0.03

Question: For GGCACAGCUCAGCACAACGUGGCAAAUAGGCUGUGGCUUGAAUGCC [G5C A12G G17A G27U U28A A39U C42A], which self-cleavage is on record?
Answer: 0.06

Question: Which self-cleavage does the source give for GGCACAGCUCAGCACAGCGUGACAAAGUGUCUGUGGCUAGACUGCA [G5C A12G G22A G30U C46A] here?
Answer: 0.01

Question: With GGCACAGCUCAGCACAGCGUGGCAAAGUGGCAGUGGCUAGUCUGCC [G5C A12G U32A A41U] as the variant, how does the self-cleavage read?
Answer: 0.12

Question: Which self-cleavage does the source give for GGCACAGCUCAGCACAGCGUGGCAAAGUGGCUGGGGCUAGACUACC [G5C A12G U34G G44A] here?
Answer: 0.02

Question: For GGCACAGCUCAUCACCGCGGGGCAAAGUGGCUGUGGCUAGACUGCC [G5C A12U A16C U20G], which self-cleavage is on record?
Answer: 0.03

Question: With GGCACAGCUCAUCACAGUGUGGCAAAUUGGCUAUGGCUAGACUGCC [G5C A12U C18U G27U G33A] as the variant, how does the self-cleavage read?
Answer: 0.13

Question: For GGCACAGCUCAUCACACCGUGGCAAAGUGGCUGUGGCUAGACUGCC [G5C A12U G17C], which self-cleavage is on record?
Answer: 0.14

Question: For GGCACAGCUCAUCACAGCGUGGCAAAUUGGCUGUUGCUAGACUGCC [G5C A12U G27U G35U], which self-cleavage is on record?
Answer: 0.03

Question: Which self-cleavage does the source give for GGCACAGCUCAUCACAGCGUGGCAAAGUGCCUGUGGCUAGACUGCC [G5C A12U G30C] here?
Answer: 0.01

Question: With GGCACAGCUCAACCCAGAGUGGUAAAGUGGCUGUGCCUAGACUGCC [G5C A14C C18A C23U G36C] as the variant, how does the self-cleavage read?
Answer: 0.02

Question: Which self-cleavage does the source give for GGCACAGCUCAACCCAGUGUGGGAAAGUGGCUGCGACUAGACUGCC [G5C A14C C18U C23G U34C G36A] here?
Answer: 0.02

Question: Which self-cleavage does the source give for GGCACAGCUCAACCCAGCGCGGCAAAGUGGCUGUGGCUAGACCGCC [G5C A14C U20C U43C] here?
Answer: 0.01

Question: Which self-cleavage does the source give for GGCACAGCUCAACGGAGCGUGGCAAAGGGGCUCUGGCCAGACUGCC [G5C A14G C15G U28G G33C U38C] here?
Answer: 0.02

Question: With GGCACAGCUCAACUCAGCGUUGCAAAGUGACUGUGCCUAGACUGCC [G5C A14U G21U G30A G36C] as the variant, how does the self-cleavage read?
Answer: 0

Question: For GGCACAGCUCAACUCAGCGUUGCAAAGUGUCCGUGGCUAGACUGCC [G5C A14U G21U G30U U32C], which self-cleavage is on record?
Answer: 0.09

Question: Which self-cleavage does the source give for GGCACAGCUCAACACCGCGUGGCAAAGUGGCUGUGGCUCGACUGCC [G5C A16C A39C] here?
Answer: 0.04

Question: For GGCACAGCUCAACACCACGUGGCGAAGUGGCUGUGGCUAGACUGCC [G5C A16C G17A A24G], which self-cleavage is on record?
Answer: 0.06

Question: Which self-cleavage does the source give for GGCACAGCUCAACACCGCGGCGCAAUGUGGCUGUGGCUAGACUGCC [G5C A16C U20G G21C A26U] here?
Answer: 0.02
